The whole screen tested about 200,000 compounds, of which about 4,500 (2.2%) were called active. This list was built around the results that the source calls inconclusive (neither active nor inactive); the mix of calls is not that of the screen. The call rests on the fitted dose curve; in most records, active means well fitted inhibition curve with a large enough effect; inconclusive means small, poorly fitted or top-dose-only effect, or effect the other way; inactive means flat fitted curve, though single readings scatter. Potencies of inconclusive entries are doubtful fits and often do not repeat.
These molecules were tested against Cruzipain (Trypanosoma cruzi) (UniProt P25779) (assay: qHTS Assay for Promiscuous and Specific Inhibitors of Cruzain (without detergent)). Settings: purified cruzain, Z-FR-AMC fluorescence, no detergent.
Procedure, shortened: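 Detergent-free condition (0.00005% Triton X-100) in acetate buffer pH 5.5 with DTT. 1.5 nM enzyme and compound were pre-mixed 15 min, then 2 uM Z-FR-AMC substrate added; reaction progress from fluorescence change between first and third reads (60 s).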
Further: nearly all actives have a fitted effect of over 40% in size.
Potency means the concentration at half of the fitted maximal effect; tags describe the fitted curve by direction and shape.
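Wherever max response, negative = inhibition is given: plate controls were enzyme without inhibitor for no effect and buffer without enzyme for full effect.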

Sequence of UniProt P25779 (P25779 whole entry, looked up): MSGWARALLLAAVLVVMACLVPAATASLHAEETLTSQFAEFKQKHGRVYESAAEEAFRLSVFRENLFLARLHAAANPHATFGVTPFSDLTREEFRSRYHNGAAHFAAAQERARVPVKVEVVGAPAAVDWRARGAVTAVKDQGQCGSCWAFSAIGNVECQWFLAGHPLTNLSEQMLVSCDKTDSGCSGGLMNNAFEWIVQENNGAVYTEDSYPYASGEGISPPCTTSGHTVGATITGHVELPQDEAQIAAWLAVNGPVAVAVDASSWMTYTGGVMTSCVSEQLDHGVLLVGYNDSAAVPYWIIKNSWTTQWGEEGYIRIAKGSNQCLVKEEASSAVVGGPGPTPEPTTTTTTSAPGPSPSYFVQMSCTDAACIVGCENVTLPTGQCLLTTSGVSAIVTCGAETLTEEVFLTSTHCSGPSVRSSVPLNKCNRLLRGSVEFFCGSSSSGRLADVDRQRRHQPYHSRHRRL

SMILES | Potency | max response, negative = inhibition
O=C(CNc1ccc2c(c1)OCO2)N/N=C\c1cn(Cc2ccccc2)c2ccccc12 | active: 12.6 µM | 
COc1ccc(CNc2ncncc2-c2ccoc2)c(OC)c1 |  | inactive: -11%
CC(NC(=O)C1CCN(C(=O)N2CCOc3ccccc32)CC1)c1ccccc1 (stereo not given) | inconclusive: 39.8 µM [activator, single point] | 
Cc1cc(C)cc(NC(=O)C2CCN(c3nc(C)cc(C)n3)CC2)c1 | inconclusive: 39.8 µM [inhibitor, single point] | 
Cc1ccc(C)c2sc(NC(=O)c3nc4ccccc4s3)nc12 | active: 10 µM | 
Cc1nn(-c2ccccc2)c(C)c1/C=N/NC(=O)c1cc(-c2cccc3ccccc23)n[nH]1 | inconclusive: 39.8 µM [inhibitor, single point] | 
COc1cccc(-c2csc(N3CCN(C(=O)Nc4ccc(F)cc4)CC3)n2)c1 | inconclusive: 20 µM [inhibitor, partial curve] | 
N#CCSc1nc2c(c(=O)n1Cc1ccco1)C1(CCCC1)Cc1ccccc1-2 | inconclusive: 39.8 µM [inhibitor, single point] | 
COc1ccc2c(c1)C(=O)/C(=C/C=C/c1ccccc1)CC2 | inconclusive: 20 µM [inhibitor, partial curve, poor fit] | 
O=C(CSc1oc(-c2ccco2)nc1S(=O)(=O)c1ccc(Br)cc1)c1ccc(Cl)cc1 | active: 20 µM | 
COc1ccc(/C=C(/C(=O)Nc2ccccc2C(=O)N2CCCC2)c2ccccc2)cc1 | inconclusive: 39.8 µM [activator, single point] | 
Cc1ccc(-n2ncc3c(NCc4ccccc4)ncnc32)cc1C |  | inactive: -18.2%
COc1cc(C2Oc3nc(SC)nnc3-c3ccccc3N2C(C)=O)cc(Cl)c1OC (stereo not given) |  | inactive: 5.91%
CCOc1cccc(N2C(=O)CC(N3CCN(c4nc5ccccc5s4)CC3)C2=O)c1 (stereo not given) | inconclusive: 31.6 µM [activator, single point] | 
O=C(NC(=S)Nc1ccc(S(=O)(=O)N2CCCCC2)cc1)c1cccs1 |  | inactive: -5.98%
Cc1ccc(N=Cc2c(O)n(-c3ccc4c(c3)OCO4)c(=O)c3ccccc23)cc1 | active: 3.16 µM | 
O=C1NC(=O)C(CCc2ccncc2)(Cc2cccc(Cl)c2Cl)C(=O)N1c1ccc(Br)cc1 (stereo not given) | inconclusive: 39.8 µM [inhibitor, single point] | 
Cc1ccc(NC(=O)Cc2coc3c(C)c(C)ccc23)c(C)c1 |  | inactive: -20.9%
COc1ccc(/C=C2\SC(=O)N(CC(=O)NNC(=O)c3ccccc3O)C2=O)cc1 | inconclusive: 31.6 µM [inhibitor, single point] | 
COc1ccc(N(CC(=O)NC2CCCCCCC2)S(=O)(=O)c2c(C)nn(C)c2C)cc1 | inconclusive: 25.1 µM [activator, single point] | 
COc1ccc(Sc2ccc(NC(=O)c3ccccc3Cl)cc2C#N)cc1 | inconclusive: 31.6 µM [inhibitor, single point] | 
Fc1ccc2nc(Nc3nc4c(F)cccc4s3)sc2c1 | inconclusive: 39.8 µM [inhibitor, single point] | 

SMILES | Potency | max response, negative = inhibition
CSc1cccc(NC(=O)c2ccc3c(c2)CCCN3S(C)(=O)=O)c1 |  | inactive: 6.11%
O=C1NC(=S)N(C(=O)c2ccc(F)cc2)/C1=C/c1ccccc1 | inconclusive: 39.8 µM [inhibitor, single point] | 
O=C(NN=C1CCCC1)C(=O)Nc1cccc(C(F)(F)F)c1 |  | inactive: 1.33%
Cc1ccc(CNC(=O)CN2C(=O)COc3ccc(S(=O)(=O)N4CCC(C)CC4)cc32)cc1 | inconclusive: 39.8 µM [activator, single point] | 
CCN1C(=O)c2ccccc2S(=O)(=O)c2ccc(C(=O)NCc3ccc(F)cc3)cc21 |  | inactive: -6.32%
Cn1c(=O)c2c(nc(CN3CCN(C(=O)c4ccco4)CC3)n2Cc2cccc(Cl)c2)n(C)c1=O | inconclusive: 31.6 µM [activator, single point] | 
CCCN(CCC)CCCNC(=O)c1nn(C)c2c1CS(=O)(=O)c1ccccc1-2 |  | inactive: -1.7%
COc1cc(/C=C(\C#N)c2nc3c(s2)CCCC3)ccc1O | inconclusive: 39.8 µM [activator, single point] | 
O=C1/C(=C/c2cccnc2)Oc2cc(OS(=O)(=O)c3ccccc3)ccc21 | inconclusive: 39.8 µM [activator, single point] | 
FC(F)(F)c1cccc(N2CCN(Cc3nnc(-c4ccccc4)o3)CC2)c1 | inconclusive: 39.8 µM [activator, single point] | 
COc1ccc(-c2[nH]c(-c3ccc(C(=O)O)cc3)nc2-c2ccccc2)cc1 | inconclusive: 31.6 µM [activator, single point] | 
CCCc1ccc(OCc2nc(-c3ccc(NC(=O)c4cccs4)cc3)no2)cc1 | inconclusive: 12.6 µM [inhibitor, partial curve] | 
COC(=O)c1cccnc1-n1c(=O)c2cccnc2n(CC(=O)Nc2cccc(C(F)(F)F)c2)c1=O | inconclusive: 39.8 µM [activator, single point] | 
COc1ccc(NS(=O)(=O)c2cc(NC(=O)/C=C/c3ccccc3OC)ccc2N2CCCCC2)cc1 | active: 3.16 µM | 
COc1ccccc1CNC(=O)c1cnn(-c2ccc(F)cc2F)c1C1CCN(C(=O)OC(C)(C)C)CC1 | inconclusive: 39.8 µM [activator, single point] | 
CC1CCCO1 (stereo not given) |  | inactive: -10.3%
Cc1ccccc1C(=O)NC(NC(=O)c1ccccc1C)c1cccc([N+](=O)[O-])c1 | inconclusive: 31.6 µM [inhibitor, single point] | 
O=C(CSc1nc(-c2ccccc2)cc(=O)[nH]1)Nc1ccccn1 | inconclusive: 25.1 µM [inhibitor, single point] | 
CCN(CC)c1ccc(C2C(C(N)=O)=C(C)Nc3nc(SCc4ccccc4)nn32)cc1 (stereo not given) | inconclusive: 39.8 µM [inhibitor, single point] | 
CCOc1ccc2nc(NCCCO)[nH]c2c1 | inconclusive: 5.01 µM [inhibitor, partial curve, poor fit] | 
CCOC(=O)C1CCCN(C(=O)Cn2nc(C)n3c(cc4c(OC)cccc43)c2=O)C1 (stereo not given) | inconclusive: 31.6 µM [activator, single point] | 
O=C(OCc1cc(=O)n2c(n1)sc1ccccc12)c1ccc(O)cc1 | inconclusive: 39.8 µM [inhibitor, single point] | 

SMILES | Potency | max response, negative = inhibition
CCC(C)n1c(=N)c(C(=O)NC2CCCCC2)cc2c(=O)n3cc(C)ccc3nc21 (stereo not given) |  | inactive: 29.2%
CC(C)Sc1nc2c(c(=O)n(C)c(=O)n2C)n1C |  | inactive: 6.87%
COc1ccccc1-c1cncnc1NCCNC(C)=O |  | inactive: -5.72%
Cc1ccc(C)c(NC(=O)C(NS(=O)(=O)c2ccc3c(c2)CCC(=O)N3)c2ccccc2)c1 (stereo not given) | inconclusive: 0.158 µM [activator, full curve, poor fit] | 
CC1CCCN(S(=O)(=O)c2ccc3c(c2)CCN3C(=O)C2CCC2)C1 (stereo not given) | inconclusive: 15.8 µM [inhibitor, partial curve] | 
Cc1ccc(CNC(=O)C2CCN(S(=O)(=O)c3c(C)noc3/C=C/c3ccccc3F)CC2)o1 |  | inactive: -8.47%
COc1ccc(S(=O)(=O)N(C(=O)c2ccncc2)c2ccc3oc(C)c(C(C)=O)c3c2)cc1 | inconclusive: 31.6 µM [activator, single point] | 
Cc1ccc(C(=O)c2cc(C)sc2NC(=O)CN2CCN(C(=O)c3ccco3)CC2)cc1 | inconclusive: 39.8 µM [activator, single point] | 
Cc1ccc(-n2c(=O)c3cccnc3n2CC(=O)Nc2ccccc2C(F)(F)F)cc1C | inconclusive: 39.8 µM [inhibitor, single point] | 
Cc1cccc(C(=O)NCc2cn3cccc(C)c3n2)c1 |  | inactive: 3.67%
CC(C)c1ccc(Cc2cnc(NC(=O)c3ccc4c(c3)CC(c3ccccc3)OC4=O)s2)cc1 (stereo not given) | inconclusive: 39.8 µM [inhibitor, single point] | 
COc1ccc(C(=O)Nc2ccc(N3CCCC3)cc2)cc1 | active: 10 µM | 
COc1cc(N)ccc1Cc1ccc(N)cc1OC | inconclusive: 25.1 µM [inhibitor, single point] | 
Cc1c(NC(=O)c2nn3c(C(F)(F)F)cc(-c4ccccc4)nc3c2Br)c(=O)n(-c2ccccc2)n1C | inconclusive: 39.8 µM [activator, single point] | 
Cc1cc(C)c(-c2csc(NC(=O)COC(=O)c3ccc4c(c3)OCO4)n2)c(C)c1 | inconclusive: 31.6 µM [inhibitor, single point] | 
Cc1ccccc1C(=O)Nc1ccc2nc(SCC(=O)N(C)c3ccccc3)sc2c1 | inconclusive: 39.8 µM [inhibitor, single point] | 
Cc1cccc(Cn2c(SCc3ccc(C(=O)NCc4cccs4)cc3)nc3ccncc32)c1 | inconclusive: 39.8 µM [inhibitor, single point] | 
Cn1cc(-c2cc3n(n2)CCC(=O)N3CC(=O)NCc2ccccc2)c2ccccc21 | inconclusive: 39.8 µM [activator, single point] | 
CN(Cc1ccco1)c1ccnc(-c2cccc(C#N)c2)n1 |  | inactive: -0.973%
COc1ccc(/C=N\NC(=O)COc2ccc(C(C)(C)C)cc2)cc1Cn1nc(C)cc1C | active: 25.1 µM | 
COc1ccc(N(C(=O)c2cc(OC)c(OC)c(OC)c2)S(=O)(=O)c2ccc(C)cc2)cc1 | inconclusive: 39.8 µM [activator, single point] | 

Reference: PubChem BioAssay AID1476 (National Center for Advancing Translational Sciences (NCATS), 2009)
